# Results from the supplement of paper PMC3334620.
# Over roughly 33,000 sequences, “E-score (-0.5 to 0.5)” has its median near -0.032; the highest 2% begin near 0.36. Some of the results follow.
# Biological target: T1, Sko1 (UniProt Q02100)
# T1 sequence: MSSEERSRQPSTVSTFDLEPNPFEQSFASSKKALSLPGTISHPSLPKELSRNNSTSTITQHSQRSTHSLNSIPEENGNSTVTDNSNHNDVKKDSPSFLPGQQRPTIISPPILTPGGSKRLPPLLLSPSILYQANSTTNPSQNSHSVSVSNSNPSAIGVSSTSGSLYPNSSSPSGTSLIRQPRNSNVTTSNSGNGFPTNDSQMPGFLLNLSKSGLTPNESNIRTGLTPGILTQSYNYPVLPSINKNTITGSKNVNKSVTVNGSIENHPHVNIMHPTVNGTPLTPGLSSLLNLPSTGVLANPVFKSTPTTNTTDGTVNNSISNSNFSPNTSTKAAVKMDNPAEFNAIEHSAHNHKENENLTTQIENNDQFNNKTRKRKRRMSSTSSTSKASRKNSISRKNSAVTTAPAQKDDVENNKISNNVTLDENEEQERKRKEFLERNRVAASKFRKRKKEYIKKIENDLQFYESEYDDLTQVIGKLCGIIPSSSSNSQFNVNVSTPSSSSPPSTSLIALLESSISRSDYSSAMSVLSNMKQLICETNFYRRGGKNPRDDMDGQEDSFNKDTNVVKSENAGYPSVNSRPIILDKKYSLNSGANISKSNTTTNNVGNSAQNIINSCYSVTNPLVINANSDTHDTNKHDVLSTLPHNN
# Assay: PBM E-score (8-mer binding enrichment) (E-score (-0.5 to 0.5)); higher = stronger / more preferred TF binding; most listed sequences are background and not binding sites
# Details: protein concentration: 200 nM; construct: GST-full length
# Procedure, shortened: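 PURExpress in vitro transcription/translation supplied GST-tagged yeast transcription factors, either full-length or DNA-binding domain. Applied at about 100-200 nM to universal all-10-mer Agilent arrays double-stranded by primer extension, the bound protein was detected with fluorescent anti-GST. E-scores, modified Wilcoxon-Mann-Whitney statistics, were given by the Universal PBM Analysis Suite to ungapped eight-base words pooled with their reverse complements after masliner normalisation.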
row,Sequence,PBM E-score
1,CTATCCGC,0.0796
2,ATACTACG,0.288
3,AGCGGGCG,-0.15
4,CAGCCATC,0.0411
5,GCGTCTAC,0.119
6,ACCCGTAT,-0.0929
7,AGATTCTA,0.103
8,AATTAAAC,0.199
9,CAAAGTAC,0.174
10,CACGAATA,0.265
11,GCAAGGAA,-0.176
12,AGGCTTAG,-0.178
13,ACTACCAT,0.0147
14,ACTAGGGA,-0.155
15,TAGTAATA,0.264
16,AGATGGGC,-0.273
17,AAGCTTAT,0.073
18,AAGAGACT,-0.13
19,CCATTCGG,-0.0613
20,AACAACAC,0.101
21,CTCGGTAA,-0.0649
22,AGATATCT,-0.164
23,ACCGATAT,-0.0781
24,CGAAACCA,0.225
25,CATCAATA,0.271

row,Sequence,PBM E-score
1,AACATTAC,0.299
2,ACAAACGC,0.0797
3,CGAACCCG,-0.266
4,CAATAGGA,0.00627
5,ACGCCGAA,-0.0716
6,ACACCAAT,0.095
7,CCTCCGGC,-0.312
8,ACCAGGAT,-0.00173
9,TCCTGACA,0.0551
10,CTATATGA,0.159
11,CCTCTACG,0.109
12,GCAGATCA,-0.182
13,CAAGTGCA,-0.0677
14,ATCGTATA,0.197
15,AATTACAC,0.0946
16,ATTATAGG,-0.0444
17,AAACCAAC,-0.0775
18,ACTGACCA,-0.216
19,ATGGCGGC,-0.261
20,TAATCAAA,0.147
21,GCAATTAC,0.258
22,AAACCTAT,0.138
23,CAATAAGG,-0.0753
24,AGGCAACA,-0.173
25,GGGCGGTA,-0.282

row,Sequence,PBM E-score
1,AGGCGGAA,-0.0647
2,TCGCACAA,0.0887
3,ATACATTG,0.139
4,ATGTAGGC,-0.0584
5,CGAATTAG,0.0848
6,GCGGACTA,-0.0398
7,GGGTATAC,-0.026
8,CACCTTCG,-0.136
9,TCGCTGAA,0.034
10,CTACTTCA,-0.0541
11,CGCACCAC,-0.0199
12,ATAAGTGG,0.0758
13,AACGTGCG,0.211
14,ATTCAGGC,-0.127
15,CCAACCCA,-0.283
16,ACGACCAT,-0.105
17,CCACGGTC,-0.372
18,GGCGCTAC,-0.0282
19,AAAGGCGA,0.0163
20,CGGATCGA,-0.183
21,ACACGGTG,-0.16
22,GTGCATCA,0.239
23,AGAGCGTC,0.122
24,GGCAGCTA,0.105
25,AGGTCAAT,0.0656

row,Sequence,PBM E-score
1,CTATATAA,0.123
2,CAGCCAAC,0.0493
3,CGGACCCA,-0.229
4,CAGAACTG,0.0639
5,AATATTCT,-0.0383
6,AGCGGTAT,0.0486
7,AAGGCAGG,-0.239
8,AACGTGAG,0.135
9,GGTTGAGA,-0.129
10,ACTGTACA,0.103
11,TAAAAAAA,0.179
12,CGCCGACA,-0.00963
13,CACGCCGC,-0.202
14,AGCGTGTC,-0.0386
15,TATCTGGA,-0.215
16,ACTTCTAC,0.109
17,ACGGCTTG,-0.115
18,CGGTGTGC,-0.164
19,ATTCCTAG,-0.0629
20,AACCTGAT,0.0435
21,AATACTGT,0.07
22,CACCGGCG,-0.183
23,GGCAGAGA,-0.0283
24,CCAGCTTA,-0.0305
25,AATATAAG,0.241

row,Sequence,PBM E-score
1,TGACGCAA,0.483
2,AACTGCAT,0.134
3,CAATCCTC,-0.125
4,CGGCCATC,-0.325
5,ACGAATCA,0.212
6,AATATGCT,0.185
7,AGTGGGGG,-0.374
8,AGAAGTTG,-0.182
9,TAATGTGA,0.282
10,ATGGAGCC,-0.24
11,GTAGTTCA,0.112
12,CAAGGCAC,-0.148
13,CTGTGGAC,-0.155
14,CCCCGGGC,-0.344
15,GTACCTGA,0.16
16,TATAAGCA,0.0189
17,AAGCACTG,-0.0664
18,AACTCCTA,-0.1
19,AGATATTG,0.0206
20,GAGGACTC,-0.241
21,CCGTTTGC,-0.226
22,CTTACCGC,-0.204
23,AGACGCAG,0.00981
24,GGACCGCA,-0.275
25,ACTCAACA,0.186

row,Sequence,PBM E-score
1,CGTGAGGA,-0.0286
2,CTACCAAC,0.0684
3,AGTTACCC,-0.204
4,GACGCTGC,0.122
5,GCCAATGA,0.0138
6,ACTAAAGA,0.0552
7,CAGTTTTA,0.0607
8,ACCCTAGA,-0.0276
9,CAGTCCAC,-0.144
10,CCAGGTAG,-0.281
11,CTTCAAAG,-0.0612
12,ATCAGGAT,0.077
13,CAATTCGA,-0.0639
14,GCTTATCC,-0.0737
15,ATGTACAG,-0.0459
16,CGACGTAG,0.368
17,ATCCGGAT,-0.219
18,ATGTCCAG,-0.171
19,AGAGATGC,0.0796
20,AGAATTTC,-0.176
21,ATCCGGTA,-0.013
22,ATTTGAAA,0.207
23,ACAACCCT,-0.208
24,ACCGTACG,0.145
25,GGATCGAC,-0.242

row,Sequence,PBM E-score
1,CCAAAGGA,-0.224
2,ACATCAAA,0.1
3,AGAAGTCA,0.011
4,ATACTGTC,0.0677
5,AGGCGCGC,0.0511
6,CTCCTGCA,-0.297
7,ATGTTTAA,0.194
8,AGAGAACG,0.117
9,ACAAAGGG,-0.29
10,CGGCTACG,0.243
11,GAGTCTAA,-0.00122
12,CGACAGAA,0.099
13,GGCACACA,-0.189
14,CGTGTTAA,0.266
15,CATCCGAG,-0.0637
16,CGTGCCAC,0.182
17,GCTTTCAA,0.0634
18,ACAGGCTC,-0.177
19,ATTGCTAG,-0.0439
20,GGAGCTCA,-0.167
21,GGGGTAAC,-0.0418
22,CGGTTCAA,-0.1
